Results: the supplement of paper PMC11543636
Each value is the number of isolates with that result; steps that no isolate showed are left empty. MIC of clinical M. tuberculosis isolates from a national drug-resistance survey, broth microdilution on MYCOTB, UKMYC5 or UKMYC6 plates (ranges differ by plate), read after 10-21 days; higher = less susceptible. Call: the paper's susceptible [S] / resistant [R] by the drug's critical concentration (it differs by plate for some drugs); calls for ofloxacin and levofloxacin are not shown. MYCOTB plates carry ofloxacin; the paper halves those MICs to stand for levofloxacin, and they are doubled back here. The top step of a plate is printed with and without '>' in the source and is marked '>=' when plain; the plain lowest step of rifampicin and kanamycin on MYCOTB is marked '<='. Isolates that the source marks as part of the WHO data set are not listed here.

Assays:
Assay in all cases: Isolates counted by MIC; Broth microdilution on commercial drug-susceptibility plates, read by two operators.
[1] = test system: Mycobacterium tuberculosis lineage 4 on plate UKMYC6 (614 isolates)
[2] = test system: Mycobacterium tuberculosis lineage 1 on plate MYCOTB (31 isolates)
[3] = test system: Mycobacterium tuberculosis lineage 2 on plate MYCOTB (3813 isolates)
[4] = test system: Mycobacterium tuberculosis lineage 3 on plate UKMYC6 (383 isolates)
[5] = test system: Mycobacterium tuberculosis lineage 4 on plate UKMYC5 (155 isolates)
[6] = test system: Mycobacterium tuberculosis lineage 2 on plate UKMYC5 (529 isolates)
[7] = test system: Mycobacterium tuberculosis lineage 4 on plate MYCOTB (1613 isolates)
[8] = test system: Mycobacterium tuberculosis lineage 2 on plate UKMYC6 (1557 isolates)
[9] = test system: Mycobacterium tuberculosis lineage 2 on plate UKMYC6 (1560 isolates)
[10] = test system: Mycobacterium tuberculosis lineage 3 on plate UKMYC6 (380 isolates)
[11] = test system: Mycobacterium tuberculosis lineage 2 on plate UKMYC5 (530 isolates)
[12] = test system: Mycobacterium tuberculosis lineage 2 on plate MYCOTB (3815 isolates)
[13] = test system: Mycobacterium tuberculosis lineage 4 on plate UKMYC6 (615 isolates)
[14] = test system: Mycobacterium tuberculosis lineage 2 on plate UKMYC6 (1564 isolates)

NNC(=O)c1ccncc1 [isoniazid]
Settings | isolate count
[1], MIC: 0.05 mg/L | 267 [S]
[1], MIC: 0.1 mg/L | 15 [S]
[1], MIC: 0.2 mg/L | 14 [R]
[1], MIC: 0.4 mg/L | 9 [R]
[1], MIC: 0.8 mg/L | 9 [R]
[1], MIC: 1.6 mg/L | 13 [R]
[1], MIC: 3.2 mg/L | 10 [R]
[1], MIC: 6.4 mg/L | 2 [R]
[1], MIC: >12.8 mg/L | 2 [R]
[1], MIC: ≤0.025 mg/L | 266 [S]
[1], MIC: ≥12.8 mg/L | 7 [R]
[2], MIC: 0.06 mg/L | 8 [S]
[2], MIC: ≤0.03 mg/L | 20 [S]
[2], MIC: ≥4 mg/L | 3 [R]
[3], MIC: 0.06 mg/L | 804 [S]
[3], MIC: 0.12 mg/L | 86 [S]
[3], MIC: 0.25 mg/L | 92 [R]
[3], MIC: 0.5 mg/L | 24 [R]
[3], MIC: 1 mg/L | 46 [R]
[3], MIC: 2 mg/L | 176 [R]
[3], MIC: >4 mg/L | 13 [R]
[3], MIC: ≤0.03 mg/L | 2300 [S]
[3], MIC: ≥4 mg/L | 270 [R]
[4], MIC: 0.05 mg/L | 264 [S]
[4], MIC: 0.1 mg/L | 7 [S]
[4], MIC: 0.2 mg/L | 3 [R]
[4], MIC: 0.4 mg/L | 8 [R]
[4], MIC: 1.6 mg/L | 7 [R]
[4], MIC: 3.2 mg/L | 10 [R]
[4], MIC: 6.4 mg/L | 4 [R]
[4], MIC: ≤0.025 mg/L | 73 [S]
[4], MIC: ≥12.8 mg/L | 7 [R]
[5], MIC: 0.05 mg/L | 109 [S]
[5], MIC: 0.1 mg/L | 7 [S]
[5], MIC: 0.2 mg/L | 2 [R]
[5], MIC: 0.4 mg/L | 1 [R]
[5], MIC: >1.6 mg/L | 6 [R]
[5], MIC: ≤0.025 mg/L | 26 [S]
[5], MIC: ≥1.6 mg/L | 4 [R]
[6], MIC: 0.05 mg/L | 295 [S]
[6], MIC: 0.1 mg/L | 23 [S]
[6], MIC: 0.2 mg/L | 16 [R]
[6], MIC: 0.4 mg/L | 12 [R]
[6], MIC: 0.8 mg/L | 8 [R]
[6], MIC: >1.6 mg/L | 29 [R]
[6], MIC: ≤0.025 mg/L | 110 [S]
[6], MIC: ≥1.6 mg/L | 36 [R]
[7], MIC: 0.06 mg/L | 683 [S]
[7], MIC: 0.12 mg/L | 47 [S]
[7], MIC: 0.25 mg/L | 40 [R]
[7], MIC: 0.5 mg/L | 16 [R]
[7], MIC: 1 mg/L | 8 [R]
[7], MIC: 2 mg/L | 26 [R]
[7], MIC: >4 mg/L | 5 [R]
[7], MIC: ≤0.03 mg/L | 698 [S]
[7], MIC: ≥4 mg/L | 90 [R]
[8], MIC: 0.05 mg/L | 526 [S]
[8], MIC: 0.1 mg/L | 54 [S]
[8], MIC: 0.2 mg/L | 35 [R]
[8], MIC: 0.4 mg/L | 18 [R]
[8], MIC: 0.8 mg/L | 18 [R]
[8], MIC: 1.6 mg/L | 63 [R]
[8], MIC: 3.2 mg/L | 90 [R]
[8], MIC: 6.4 mg/L | 11 [R]
[8], MIC: >12.8 mg/L | 3 [R]
[8], MIC: ≤0.025 mg/L | 727 [S]
[8], MIC: ≥12.8 mg/L | 12 [R]

CC(=O)NC[C@H]1CN(c2ccc(N3CCOCC3)c(F)c2)C(=O)O1 [linezolid]
isolate count
Settings | MIC: 0.06 mg/L | MIC: 0.12 mg/L | MIC: 0.25 mg/L | MIC: 0.5 mg/L | MIC: 1 mg/L | MIC: 2 mg/L | MIC: >4 mg/L | MIC: ≤0.03 mg/L | MIC: ≤0.06 mg/L | MIC: ≥4 mg/L
[1] | – | 12 [S] | 126 [S] | 441 [S] | 28 [S] | 1 [R] | 3 [R] | – | 3 [S] | –
[5] | 2 [S] | 4 [S] | 35 [S] | 100 [S] | 13 [S] | – | – | 1 [S] | – | –
[6] | 1 [S] | 7 [S] | 77 [S] | 414 [S] | 24 [S] | 3 [R] | – | 3 [S] | – | –
[9] | – | 31 [S] | 432 [S] | 1040 [S] | 33 [S] | 1 [R] | 7 [R] | – | 6 [S] | 5 [R]
[10] | – | 1 [S] | 52 [S] | 302 [S] | 24 [S] | – | – | – | 1 [S] | –

COc1c(N2C[C@@H]3CCCN[C@@H]3C2)c(F)cc2c(=O)c(C(=O)O)cn(C3CC3)c12 [moxifloxacin]
isolate count
Settings | [2] | [4] | [5] | [7] | [11] | [12] | [13] | [14]
MIC: 0.12 mg/L | 1 [S] | 258 [S] | 30 [S] | 93 [S] | 99 [S] | 286 [S] | 134 [S] | 289 [S]
MIC: 0.25 mg/L | 13 [S] | 18 [S] | 72 [S] | 656 [S] | 289 [S] | 2080 [S] | 318 [S] | 898 [S]
MIC: 0.5 mg/L | 13 [S] | 1 [S] | 46 [S] | 733 [S] | 96 [S] | 1090 [S] | 125 [S] | 274 [S]
MIC: 1 mg/L | 2 [S] | – | 3 [S] | 38 [S] | 8 [S] | 49 [S] | 6 [S] | 18 [S]
MIC: 2 mg/L | 1 [R] | 1 [R] | – | 17 [R] | 19 [R] | 57 [R] | 6 [R] | 24 [R]
MIC: 4 mg/L | 1 [R] | – | – | 14 [R] | – | 89 [R] | – | –
MIC: >4 mg/L | – | – | – | – | – | – | 3 [R] | 14 [R]
MIC: >8 mg/L | – | – | – | 3 [R] | – | 2 [R] | – | –
MIC: ≤0.06 mg/L | – | 105 [S] | 4 [S] | 34 [S] | 8 [S] | 89 [S] | 13 [S] | 24 [S]
MIC: ≥4 mg/L | – | – | – | – | 11 [R] | – | 10 [R] | 23 [R]
MIC: ≥8 mg/L | – | – | – | 25 [R] | – | 66 [R] | – | –

CC1COc2c(N3CCN(C)CC3)c(F)cc3c(=O)c(C(=O)O)cn1c23 (stereo unspecified) [ofloxacin]
isolate count
Settings | MIC: 0.5 mg/L | MIC: 1 mg/L | MIC: 2 mg/L | MIC: 4 mg/L | MIC: 8 mg/L | MIC: 16 mg/L | MIC: >32 mg/L | MIC: ≤0.25 mg/L | MIC: ≥32 mg/L
[2] | – | 10 | 19 | – | – | 1 | – | – | 1
[7] | 187 | 1200 | 107 | 12 | 21 | 17 | 2 | 49 | 19
[12] | 899 | 2500 | 77 | 44 | 69 | 99 | – | 97 | 34

CO[C@H]1/C=C/O[C@@]2(C)Oc3c(C)c(O)c4c(O)c(c(/C=N/N5CCN(C)CC5)c(O)c4c3C2=O)NC(=O)/C(C)=C\C=C\[C@H](C)[C@H](O)[C@@H](C)[C@@H](O)[C@@H](C)[C@H](OC(C)=O)[C@@H]1C [rifampicin]
Settings | isolate count
[2], MIC: 0.25 mg/L | 8 [S]
[2], MIC: 1 mg/L | 1 [R]
[2], MIC: ≤0.12 mg/L | 20 [S]
[2], MIC: ≥16 mg/L | 2 [R]
[4], MIC: 0.06 mg/L | 7 [S]
[4], MIC: 0.12 mg/L | 143 [S]
[4], MIC: 0.25 mg/L | 199 [S]
[4], MIC: 0.5 mg/L | 25 [S]
[4], MIC: 1 mg/L | 2 [R]
[4], MIC: 2 mg/L | 1 [R]
[4], MIC: ≤0.03 mg/L | 1 [S]
[4], MIC: ≥8 mg/L | 5 [R]
[5], MIC: 0.12 mg/L | 85 [S]
[5], MIC: 0.25 mg/L | 33 [S]
[5], MIC: 0.5 mg/L | 3 [S]
[5], MIC: >4 mg/L | 2 [R]
[5], MIC: ≤0.06 mg/L | 28 [S]
[5], MIC: ≥4 mg/L | 4 [R]
[7], MIC: 0.25 mg/L | 466 [S]
[7], MIC: 0.5 mg/L | 85 [S]
[7], MIC: 1 mg/L | 6 [R]
[7], MIC: 2 mg/L | 1 [R]
[7], MIC: 4 mg/L | 3 [R]
[7], MIC: 8 mg/L | 2 [R]
[7], MIC: >16 mg/L | 19 [R]
[7], MIC: ≤0.12 mg/L | 980 [S]
[7], MIC: ≥16 mg/L | 51 [R]
[11], MIC: 0.06 mg/L | 4 [S]
[11], MIC: 0.12 mg/L | 257 [S]
[11], MIC: 0.25 mg/L | 115 [S]
[11], MIC: 0.5 mg/L | 8 [S]
[11], MIC: 1 mg/L | 6 [R]
[11], MIC: >4 mg/L | 9 [R]
[11], MIC: ≤0.06 mg/L | 98 [S]
[11], MIC: ≥4 mg/L | 33 [R]
[12], MIC: 0.25 mg/L | 1400 [S]
[12], MIC: 0.5 mg/L | 313 [S]
[12], MIC: 1 mg/L | 32 [R]
[12], MIC: 2 mg/L | 24 [R]
[12], MIC: 4 mg/L | 14 [R]
[12], MIC: 8 mg/L | 8 [R]
[12], MIC: >16 mg/L | 41 [R]
[12], MIC: ≤0.12 mg/L | 1710 [S]
[12], MIC: ≥16 mg/L | 274 [R]
[13], MIC: 0.06 mg/L | 75 [S]
[13], MIC: 0.12 mg/L | 325 [S]
[13], MIC: 0.25 mg/L | 166 [S]
[13], MIC: 0.5 mg/L | 15 [S]
[13], MIC: 1 mg/L | 3 [R]
[13], MIC: 4 mg/L | 1 [R]
[13], MIC: >8 mg/L | 12 [R]
[13], MIC: ≤0.03 mg/L | 11 [S]
[13], MIC: ≥8 mg/L | 7 [R]
[14], MIC: 0.06 mg/L | 303 [S]
[14], MIC: 0.12 mg/L | 550 [S]
[14], MIC: 0.25 mg/L | 454 [S]
[14], MIC: 0.5 mg/L | 62 [S]
[14], MIC: 1 mg/L | 8 [R]
[14], MIC: 2 mg/L | 8 [R]
[14], MIC: 4 mg/L | 10 [R]
[14], MIC: >8 mg/L | 86 [R]
[14], MIC: ≤0.03 mg/L | 49 [S]
[14], MIC: ≥8 mg/L | 34 [R]
